The list shows a part of the results.
Columns and labels:
HSkMC = human skeletal muscle cells; experiment: cytotoxicity call (relative viability < 0.9); settings: 10 µM
HepG2 = experiment: cytotoxicity call (relative viability < 0.9); settings: 10 µM
S. aureus RN4220 = experiment: growth inhibition call (relative growth <= 0.2); settings: 50 µM

| Structure (SMILES) | cytotoxicity call (HSkMC) | cytotoxicity call (HepG2) | growth inhibition call (S. aureus RN4220) |
| --- | --- | --- | --- |
| C[C@@H]1CCCCO[C@@H](CN(C)C(=O)Nc2ccccc2)[C@H](C)CN([C@H](C)CO)C(=O)c2cc(NC(=O)c3ccncc3)ccc2O1 | inactive | inactive | inactive |
| CCCNC(=O)N[C@@H]1CC[C@H](CC(=O)N2CCN(C)CC2)O[C@@H]1CO | inactive | inactive | inactive |
| C[C@@H]1CCCCO[C@H](CN(C)C(=O)Nc2ccc(C(F)(F)F)cc2)[C@@H](C)CN([C@H](C)CO)C(=O)c2cc(NC(=O)Nc3ccc(F)cc3)ccc2O1 | inactive | active | inactive |
| C[C@@H]1CCCCO[C@H](CN(C)S(C)(=O)=O)[C@H](C)CN([C@@H](C)CO)C(=O)c2cc(NS(C)(=O)=O)ccc2O1 | inactive | inactive | inactive |
| CCS(=O)(=O)Nc1ccc2c(c1)C(=O)N(C)[C@@H]1CC[C@H](CC(=O)N[C@@H]3CCN(Cc4ccccc4)C3)O[C@H]1CO2 | inactive | inactive | inactive |
| NC(=O)CC[C@H](N)C(=O)O | inactive | inactive | inactive |
| CCCC#Cc1ccc2c(c1)O[C@H](CN(C)S(=O)(=O)c1cccc(F)c1)[C@H](C)CN([C@H](C)CO)S2(=O)=O | inactive | inactive | inactive |
| CN1C(=O)c2cc(NS(=O)(=O)CC(F)(F)F)ccc2OC[C@H]2O[C@@H](CC(=O)NCC3CCCCC3)CC[C@@H]21 | inactive | inactive | inactive |
| C[C@H]1CN([C@@H](C)CO)C(=O)Cc2cc(NS(=O)(=O)c3ccc(Cl)cc3)ccc2O[C@H]1CN(C)Cc1ccc(-c2ccccc2)cc1 | active | active | inactive |
| CO[C@H]1CN(C)C(=O)c2cc(NC(=O)CC(F)(F)F)ccc2OC[C@@H](C)N(C(=O)C2CCOCC2)C[C@@H]1C | inactive | inactive | inactive |
| C[C@@H]1CN([C@H](C)CO)C(=O)c2cc(Br)cnc2O[C@H]1CN(C)C(=O)Nc1ccc2c(c1)OCO2 | inactive | inactive | inactive |
| COCC(=O)Nc1ccc2c(c1)OC[C@H](C)N(Cc1cccc(F)c1)C[C@@H](C)[C@H](OC)CN(C)C2=O | inactive | inactive | inactive |
| COc1ccc(C#Cc2ccc3c(c2)O[C@@H](CN(C)C(=O)CN2CCOCC2)[C@H](C)CN([C@@H](C)CO)S3(=O)=O)cc1 | inactive | inactive | inactive |
| C[C@@H]1CCCCO[C@@H](CN(C)Cc2ccncc2)[C@H](C)CN([C@@H](C)CO)C(=O)c2cc(NC(=O)Nc3cccc4ccccc34)ccc2O1 | inactive | inactive | inactive |
| C[C@@H]1CCCCO[C@H](CN(C)S(=O)(=O)c2cn(C)cn2)[C@@H](C)CN([C@@H](C)CO)C(=O)c2cc(NS(=O)(=O)c3ccccc3)ccc2O1 | inactive | inactive | inactive |
| Cc1ccc(S(=O)(=O)Nc2ccc3c(c2)C(=O)N([C@@H](C)CO)C[C@H](C)[C@H](CN(C)Cc2ccc(Oc4ccccc4)cc2)O3)cc1 | inactive | inactive | inactive |
| COc1ccc(S(=O)(=O)N(C)C[C@H]2Oc3c(NC(=O)c4cc(C)nn4C)cccc3C(=O)N([C@@H](C)CO)C[C@@H]2C)cc1 | inactive | inactive | inactive |
| COC(=O)[C@H](Cc1ccccc1)N1CC2=C[C@H](C3CC3)n3c(=O)n(C)c(=O)n3[C@@H]2[C@H]1[C@H](O)Cc1ccccc1 | inactive | inactive | inactive |
| Cc1noc(C)c1NC(=O)N(C)C[C@@H]1Oc2ccc(NC(=O)Cn3cnnn3)cc2C(=O)N([C@@H](C)CO)C[C@H]1C | inactive | inactive | inactive |
| COCC(=O)Nc1ccc2c(c1)C(=O)N(C)C[C@@H](OC)[C@@H](C)CN(Cc1cccc(F)c1)[C@H](C)CO2 | inactive | inactive | inactive |
| Cn1cnc(S(=O)(=O)N[C@H]2C=C[C@@H](CC(=O)N3CCN(c4ccccc4)CC3)O[C@H]2CO)c1 | inactive | inactive | inactive |
| COCC#Cc1ccc2c(c1)O[C@@H](CN(C)Cc1ccccc1F)[C@H](C)CN([C@H](C)CO)S2(=O)=O | inactive | inactive | inactive |
| C[C@H]1CN([C@@H](C)CO)S(=O)(=O)c2ccc(-c3cccc(C#N)c3)cc2O[C@H]1CN(C)C(=O)c1ccncc1 | inactive | inactive | inactive |
| Cc1noc(C)c1NC(=O)Nc1ccc2c(c1)C(=O)N([C@@H](C)CO)C[C@@H](C)[C@@H](CN(C)Cc1ccc(C(=O)O)cc1)OCCCC[C@H](C)O2 | inactive | inactive | inactive |
| C[C@H](CO)N1C[C@H](C)[C@@H](CN(C)S(=O)(=O)c2cccs2)Oc2c(NS(=O)(=O)c3ccc(F)cc3)cccc2C1=O | inactive | inactive | inactive |
| C[C@@H]1CN([C@H](C)CO)C(=O)c2cc(-c3ccncc3)cnc2O[C@H]1CN(C)S(=O)(=O)c1ccc(F)cc1 | inactive | inactive | inactive |
| Cc1noc(C)c1NC(=O)Nc1cccc2c1O[C@@H](CN(C)S(C)(=O)=O)[C@H](C)CN([C@@H](C)CO)C2=O | inactive | inactive | inactive |

| Structure (SMILES) | cytotoxicity call (HSkMC) | cytotoxicity call (HepG2) | growth inhibition call (S. aureus RN4220) |
| --- | --- | --- | --- |
| C[C@H](CO)N1C[C@H](C)[C@@H](CN(C)CC2CC2)OCCCC[C@H](C)Oc2ccc(NC(=O)Nc3ccc(C(F)(F)F)cc3)cc2C1=O | inactive | inactive | inactive |
| C[C@@H]1CCCCO[C@@H](CN(C)C)[C@H](C)CN([C@@H](C)CO)C(=O)c2cc(NC(=O)Nc3cccc4ccccc34)ccc2O1 | inactive | inactive | inactive |
| C[C@H](CO)N1C[C@H](C)[C@@H](CN(C)C(=O)Nc2ccc(F)cc2)OCCCC[C@H](C)Oc2ccc(NC(=O)Nc3ccc4c(c3)OCO4)cc2C1=O | inactive | inactive | inactive |
| COc1ccc(OCc2c(-c3ccccc3)nnn2CC(=O)NS(=O)(=O)c2ccc(F)cc2F)cc1 | inactive | inactive | inactive |
| CNC(=O)c1cc(S(=O)(=O)N(C)C[C@@H]2Oc3ccc(NC(=O)Nc4ccc(C#N)cc4)cc3CC(=O)N([C@@H](C)CO)C[C@@H]2C)cs1 | inactive | inactive | inactive |
| O=C(C[C@@H]1CC[C@@H]2[C@H](COC[C@H](O)CN2S(=O)(=O)c2ccc(Cl)cc2)O1)N[C@H]1CCN(Cc2ccccc2)C1 | inactive | inactive | inactive |
| C[C@@H]1CCCCO[C@@H](CN(C)C(=O)Nc2ccccc2)[C@H](C)CN([C@H](C)CO)C(=O)c2cc(NS(=O)(=O)c3cccs3)ccc2O1 | inactive | inactive | inactive |
| C[C@@H]1CN([C@H](C)CO)C(=O)c2c(c3ccccc3n2C)-c2ccccc2CO[C@H]1CN(C)C(=O)c1cc(Cl)cc(Cl)c1 | active | inactive | inactive |
| C[C@H](CO)N1C[C@H](C)[C@@H](CN(C)C(=O)Nc2ccc(F)cc2)Oc2ccc(NC(=O)Nc3cccc4ccccc34)cc2C1=O | inactive | inactive | inactive |
| C[C@H](CO)N1C[C@H](C)[C@H](CN(C)Cc2ccc(C(F)(F)F)cc2)Oc2ccc(NC(=O)Cc3ccccc3)cc2C1=O | inactive | inactive | inactive |
| CCNC(=O)C[C@H]1C=C[C@@H](NC(=O)C2CC2)[C@@H](CO)O1 | inactive | inactive | inactive |
| Cn1c(=O)[nH]c(=O)c2c1ncn2CCN1CCOCC1 | inactive | inactive | inactive |
| O=C(C[C@H]1CC[C@@H]2[C@H](COC[C@H](O)CN2S(=O)(=O)c2ccccc2)O1)N1CCc2ccccc2C1 | inactive | inactive | inactive |
| O=C(C[C@H]1C[C@H]2c3cc(NC(=O)Nc4ccccc4)ccc3O[C@H]2[C@@H](CO)O1)NCCN1CCCCC1 | inactive | inactive | inactive |
| C[C@@H]1CCCCO[C@@H](CN(C)C(=O)Nc2ccc3c(c2)OCO3)[C@@H](C)CN([C@@H](C)CO)C(=O)c2cc(NC(=O)Nc3ccc(C(F)(F)F)cc3)ccc2O1 | inactive | inactive | inactive |
| C[C@@H]1CCCCO[C@H](CN(C)C(=O)c2ccccc2)[C@H](C)CN([C@@H](C)CO)C(=O)c2cc(NC(=O)NC3CCCCC3)ccc2O1 | inactive | inactive | inactive |
| CNC[C@@H]1OCCCC[C@@H](C)Oc2ccc(NC(=O)c3ccncc3)cc2C(=O)N([C@@H](C)CO)C[C@H]1C | inactive | inactive | inactive |
| C[C@@H]1CN([C@H](C)CO)C(=O)c2cccc(NS(=O)(=O)c3ccccc3)c2O[C@@H]1CN(C)S(=O)(=O)c1ccc(F)cc1 | inactive | inactive | inactive |
| CCCC#Cc1ccc2c(c1)O[C@H](CN(C)S(=O)(=O)c1cccc(OC)c1)[C@H](C)CN([C@H](C)CO)S2(=O)=O | inactive | inactive | inactive |
| O=C(Nc1ccccc1)c1ccccc1O | inactive | active | active |
| CN1CCN(C(=O)C[C@@H]2CC[C@H]3[C@@H](COC[C@@H](O)CN3C(=O)C3CCCC3)O2)CC1 | inactive | inactive | inactive |
| CN1CCN(C(=O)C[C@H]2CC[C@H]3[C@@H](COC[C@H](O)CN3C(=O)C3CC3)O2)CC1 | inactive | inactive | inactive |
| Cc1ccc(S(=O)(=O)N(C)C[C@H]2OCCCC[C@H](C)Oc3ccc(NC(=O)Nc4ccc(F)cc4)cc3C(=O)N([C@@H](C)CO)C[C@@H]2C)cc1 | inactive | inactive | inactive |
| C[C@H]1CCCCO[C@@H](CN(C)S(C)(=O)=O)[C@@H](C)CN([C@@H](C)CO)C(=O)c2cc(N(C)C)ccc2O1 | inactive | inactive | inactive |
| COc1cc(-c2coc3cc(O)c(OC)c(O)c3c2=O)cc(O)c1OC | inactive | inactive | inactive |
| COc1ccc(NC(=O)N(C)C[C@H]2OCCCC[C@H](C)Oc3ccc(NC(=O)NC4CCCCC4)cc3C(=O)N([C@@H](C)CO)C[C@@H]2C)cc1 | inactive | inactive | inactive |
| Nc1ccc(/C=C/C(=O)NCc2cc3cc(-c4ccc(C(=O)N5CCC(F)(F)CC5)cc4)cc(-c4ccc(F)cc4)c3o2)cn1 | active | active | inactive |

— the antibiotic and cytotoxicity screens of Wong et al. (2023)
